In paper PMC5700166:
Only a part is listed here, and it is no random draw. The list includes weakly bound sequences.

How the values were obtained:
Assay in all cases: protein-binding microarray (PBM)
Conditions in all cases: PBM: ~300 nM protein, 6 mM HEPES pH 7.8, 80 mM KCl, 0.5 mM EDTA, 0.5 mM EGTA, 6% glycerol, 35 ng/ul poly-dIdC, 1% milk, 1 h, room temperature; Ap Aiptasia and Nv Nematostella (sea anemones) / Co Capsaspora / Aq Amphimedon (sponge) / Dm Drosophila / Hu human; RHD is the Rel homology domain; high values mean tight binding; most listed sequences are background and not binding sites; double strand, one strand shown
[1] = molecular target: T1, GST-Ap-NF-kB RHD (UniProt A0A913YAJ5)
T1 sequence: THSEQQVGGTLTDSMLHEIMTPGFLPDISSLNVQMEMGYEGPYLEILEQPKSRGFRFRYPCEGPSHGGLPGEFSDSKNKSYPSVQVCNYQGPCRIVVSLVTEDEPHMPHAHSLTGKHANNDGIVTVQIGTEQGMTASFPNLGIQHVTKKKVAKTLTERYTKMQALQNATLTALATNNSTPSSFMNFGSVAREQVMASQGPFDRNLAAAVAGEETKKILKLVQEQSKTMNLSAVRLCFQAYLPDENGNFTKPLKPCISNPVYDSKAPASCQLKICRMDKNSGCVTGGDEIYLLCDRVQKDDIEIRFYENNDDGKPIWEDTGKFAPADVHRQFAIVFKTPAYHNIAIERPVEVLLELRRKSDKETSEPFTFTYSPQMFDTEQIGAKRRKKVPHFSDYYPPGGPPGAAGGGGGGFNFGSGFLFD

[2] = molecular target: T2, GST-Nv-NF-kB (Cys allele) (UniProt E5G601)
T2 sequence: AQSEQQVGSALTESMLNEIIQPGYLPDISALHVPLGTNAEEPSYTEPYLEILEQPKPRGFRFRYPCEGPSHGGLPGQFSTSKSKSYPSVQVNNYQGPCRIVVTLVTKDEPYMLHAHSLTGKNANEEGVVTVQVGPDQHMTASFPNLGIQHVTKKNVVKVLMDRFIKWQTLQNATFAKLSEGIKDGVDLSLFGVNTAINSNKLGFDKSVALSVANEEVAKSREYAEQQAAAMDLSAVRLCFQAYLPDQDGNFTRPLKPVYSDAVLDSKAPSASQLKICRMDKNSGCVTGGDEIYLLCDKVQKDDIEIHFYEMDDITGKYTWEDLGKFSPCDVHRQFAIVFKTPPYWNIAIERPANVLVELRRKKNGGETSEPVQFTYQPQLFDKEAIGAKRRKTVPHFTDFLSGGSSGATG

[3] = molecular target: T3, GST-Co-NF-kB (UniProt F1ARL5)
T3 sequence: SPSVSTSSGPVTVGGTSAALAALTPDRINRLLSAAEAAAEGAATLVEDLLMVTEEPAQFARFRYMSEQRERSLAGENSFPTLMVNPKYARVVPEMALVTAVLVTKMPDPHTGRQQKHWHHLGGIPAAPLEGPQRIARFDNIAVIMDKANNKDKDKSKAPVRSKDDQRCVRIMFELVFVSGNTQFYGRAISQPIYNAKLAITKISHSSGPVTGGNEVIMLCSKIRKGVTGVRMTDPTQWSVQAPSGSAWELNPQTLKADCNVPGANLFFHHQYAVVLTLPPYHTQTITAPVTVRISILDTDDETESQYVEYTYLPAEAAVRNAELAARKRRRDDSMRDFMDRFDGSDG

Sequence: CCGATTAACATCAGGGGAAAATATGATGTTAATCGGGTCTTGATTCGCTTGACGCTGCTG
- binding signal [1]: 6.98 z-score
- binding signal [2]: 8.57 z-score
- binding signal [3]: 10.2 z-score

Sequence: CCGATTAACATCAAGAAAATTCCTGATGTTAATCGGGTCTTGATTCGCTTGACGCTGCTG
- binding signal [1]: 0.0459 z-score
- binding signal [2]: 0.456 z-score
- binding signal [3]: 0.0868 z-score

Sequence: CCGATTAACATCACCCCAACCCCTGATGTTAATCGGGTCTTGATTCGCTTGACGCTGCTG
- binding signal [1]: 2.55 z-score
- binding signal [2]: 0.793 z-score
- binding signal [3]: 3.44 z-score

Sequence: CCGATTAACATCAGGAATTTCCATGATGTTAATCGGGTCTTGATTCGCTTGACGCTGCTG
- binding signal [1]: 0.214 z-score
- binding signal [2]: 0.67 z-score
- binding signal [3]: -0.177 z-score

Sequence: CCGATTAACATCAGGAATTCCAATGATGTTAATCGGGTCTTGATTCGCTTGACGCTGCTG
- binding signal [1]: -0.113 z-score
- binding signal [2]: -0.0511 z-score
- binding signal [3]: 0.239 z-score

Sequence: CCGATTAACATCACACATTCCCCTGATGTTAATCGGGTCTTGATTCGCTTGACGCTGCTG
- binding signal [1]: 6.52 z-score
- binding signal [2]: 7.88 z-score
- binding signal [3]: 5.83 z-score

Sequence: CCGATTAACATCAATTCCCAAAATGATGTTAATCGGGTCTTGATTCGCTTGACGCTGCTG
- binding signal [1]: 0.62 z-score
- binding signal [2]: 2.17 z-score
- binding signal [3]: 1.45 z-score

Sequence: CCGATTAACATCAATATTCCCCCTGATGTTAATCGGGTCTTGATTCGCTTGACGCTGCTG
- binding signal [1]: 8.39 z-score
- binding signal [2]: 9.05 z-score
- binding signal [3]: 10.4 z-score

Sequence: CCGATTAACATCAGACATCCCCCTGATGTTAATCGGGTCTTGATTCGCTTGACGCTGCTG
- binding signal [1]: 5.54 z-score
- binding signal [2]: 5.65 z-score
- binding signal [3]: 3.71 z-score

Sequence: CCGATTAACATCAAGGTATTCCCTGATGTTAATCGGGTCTTGATTCGCTTGACGCTGCTG
- binding signal [1]: 4.4 z-score
- binding signal [2]: 3.82 z-score
- binding signal [3]: 3.21 z-score

Sequence: CCGATTAACATCAGGGAGATTTGTGATGTTAATCGGGTCTTGATTCGCTTGACGCTGCTG
- binding signal [1]: 3.21 z-score
- binding signal [2]: 4.56 z-score
- binding signal [3]: 2.54 z-score

Sequence: CCGATTAACATCAAGGAAAGTACTGATGTTAATCGGGTCTTGATTCGCTTGACGCTGCTG
- binding signal [1]: 0.458 z-score
- binding signal [2]: 0.397 z-score
- binding signal [3]: 0.546 z-score

Sequence: CCGATTAACATCAGGGATGCCCATGATGTTAATCGGGTCTTGATTCGCTTGACGCTGCTG
- binding signal [1]: 0.575 z-score
- binding signal [2]: 0.793 z-score
- binding signal [3]: 0.358 z-score

Sequence: CCGATTAACATCAAAATTTTCCGTGATGTTAATCGGGTCTTGATTCGCTTGACGCTGCTG
- binding signal [1]: 0.376 z-score
- binding signal [2]: 0.267 z-score
- binding signal [3]: 0.952 z-score

Sequence: CCGATTAACATCAGGGCTTTACCTGATGTTAATCGGGTCTTGATTCGCTTGACGCTGCTG
- binding signal [1]: 1.07 z-score
- binding signal [2]: 2.29 z-score
- binding signal [3]: -0.132 z-score

Sequence: CCGATTAACATCAATAAATTTCCTGATGTTAATCGGGTCTTGATTCGCTTGACGCTGCTG
- binding signal [1]: 0.399 z-score
- binding signal [2]: 0.567 z-score
- binding signal [3]: 0.477 z-score

Sequence: CCGATTAACATCACGGGATGTACTGATGTTAATCGGGTCTTGATTCGCTTGACGCTGCTG
- binding signal [1]: 0.791 z-score
- binding signal [2]: -0.333 z-score
- binding signal [3]: 0.926 z-score

Sequence: CCGATTAACATCAAAAAAATTCCTGATGTTAATCGGGTCTTGATTCGCTTGACGCTGCTG
- binding signal [1]: 0.195 z-score
- binding signal [2]: 1.23 z-score
- binding signal [3]: 0.936 z-score

Sequence: CCGATTAACATCAGGAATTTTACTGATGTTAATCGGGTCTTGATTCGCTTGACGCTGCTG
- binding signal [1]: -0.114 z-score
- binding signal [2]: 0.18 z-score
- binding signal [3]: 0.214 z-score

Sequence: CCGATTAACATCAAAATTCCCCGTGATGTTAATCGGGTCTTGATTCGCTTGACGCTGCTG
- binding signal [1]: 9.41 z-score
- binding signal [2]: 11.3 z-score
- binding signal [3]: 10.6 z-score

Sequence: CCGATTAACATCAGAGAACCCCCTGATGTTAATCGGGTCTTGATTCGCTTGACGCTGCTG
- binding signal [1]: 7.89 z-score
- binding signal [2]: 6.19 z-score
- binding signal [3]: 2.09 z-score

Sequence: CCGATTAACATCACCGGATTTCCTGATGTTAATCGGGTCTTGATTCGCTTGACGCTGCTG
- binding signal [1]: 0.853 z-score
- binding signal [2]: 0.688 z-score
- binding signal [3]: 0.397 z-score

Sequence: CCGATTAACATCAAATTCCCCCCTGATGTTAATCGGGTCTTGATTCGCTTGACGCTGCTG
- binding signal [1]: 8.5 z-score
- binding signal [2]: 8.77 z-score
- binding signal [3]: 10.1 z-score

Sequence: CCGATTAACATCAAAAAATTCCTTGATGTTAATCGGGTCTTGATTCGCTTGACGCTGCTG
- binding signal [1]: -0.0519 z-score
- binding signal [2]: 0.932 z-score
- binding signal [3]: 0.0336 z-score

Sequence: CCGATTAACATCACGGGCATCCCTGATGTTAATCGGGTCTTGATTCGCTTGACGCTGCTG
- binding signal [1]: 0.855 z-score
- binding signal [2]: 0.511 z-score
- binding signal [3]: 0.627 z-score

Sequence: CCGATTAACATCAAAAAATACCATGATGTTAATCGGGTCTTGATTCGCTTGACGCTGCTG
- binding signal [1]: 1.11 z-score
- binding signal [2]: 1.58 z-score
- binding signal [3]: 0.813 z-score

Sequence: CCGATTAACATCAAAAAACTTCCTGATGTTAATCGGGTCTTGATTCGCTTGACGCTGCTG
- binding signal [1]: 0.172 z-score
- binding signal [2]: -0.0606 z-score
- binding signal [3]: 0.382 z-score

Sequence: CCGATTAACATCAATGTTCCCCCTGATGTTAATCGGGTCTTGATTCGCTTGACGCTGCTG
- binding signal [1]: 6.95 z-score
- binding signal [2]: 6.49 z-score
- binding signal [3]: 11 z-score

Sequence: CCGATTAACATCAGAAACTCCCATGATGTTAATCGGGTCTTGATTCGCTTGACGCTGCTG
- binding signal [1]: 3.34 z-score
- binding signal [2]: 3.45 z-score
- binding signal [3]: 0.84 z-score

Sequence: CCGATTAACATCAAAATTTCCGGTGATGTTAATCGGGTCTTGATTCGCTTGACGCTGCTG
- binding signal [1]: 0.618 z-score
- binding signal [2]: 0.396 z-score
- binding signal [3]: 0.503 z-score

Sequence: CCGATTAACATCAGGAAATTACATGATGTTAATCGGGTCTTGATTCGCTTGACGCTGCTG
- binding signal [1]: 0.0399 z-score
- binding signal [2]: 0.331 z-score
- binding signal [3]: 0.0412 z-score

Sequence: CCGATTAACATCAGGTTCTTACCTGATGTTAATCGGGTCTTGATTCGCTTGACGCTGCTG
- binding signal [1]: -0.776 z-score
- binding signal [2]: 0.949 z-score
- binding signal [3]: -1.6 z-score

Sequence: CCGATTAACATCACGGGGGGAAATGATGTTAATCGGGTCTTGATTCGCTTGACGCTGCTG
- binding signal [1]: 6.31 z-score
- binding signal [2]: 6.61 z-score
- binding signal [3]: 11.2 z-score
